Measured values reported in patent US20170114099A1 (Affibody, published 2017).
Changes are numbered by the printed parent chain. Where two headings read alike, the source gives them in different places. Each block holds one binder with its values, some of them ahead of it.

What was measured:
Assay in all cases: cell-based or functional assay
[1] = target: T1, human interleukin-6 (hIL-6) (human, UniProt P05231 30-212)
T1 sequence: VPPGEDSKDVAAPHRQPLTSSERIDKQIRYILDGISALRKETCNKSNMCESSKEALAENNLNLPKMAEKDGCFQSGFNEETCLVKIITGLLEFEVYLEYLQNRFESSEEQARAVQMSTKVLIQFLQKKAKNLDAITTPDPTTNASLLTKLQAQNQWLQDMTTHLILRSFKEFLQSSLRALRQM

[2] = target: T1, human interleukin-6 (hIL-6); remark: listed apart in the source
[3] = target: T1, human interleukin-6 (hIL-6); remark: listed apart in the source

IC50 blocking the IL-6 dependent growth of TF-1 cells [1]: 77 nM
B7: His6-Z06805 (designed binder)
chain: MGSSHHHHHHLQVDAKYAKEDRTAWWEIHKLPNLTAEQMAAFITKLFDDPSQSSELLSEAKKLNDSQAPKVD

IC50 blocking the IL-6 dependent growth of TF-1 cells [3]: 0.085 nM
B8: His6-Z15122 (designed binder)
chain: B7 chain with D21E, T23H, W26Y, K30L, A36I, E37D, T44S

IC50 blocking the IL-6 dependent growth of TF-1 cells [3]: 0.042 nM
B9: His6-Z14976 (designed binder)
chain: B7 chain with D21E, T23K, W26Y, K30L, A36V

IC50 blocking the IL-6 dependent growth of TF-1 cells [3]: 0.027 nM
B10: His6-Z15015 (designed binder)
chain: B7 chain with D21E, T23D, K30A, A36V

IC50 blocking the IL-6 dependent growth of TF-1 cells [1]: 61 nM
B11: His6-Z06834 (designed binder)
chain: B7 chain with D21Q, R22H, T23Q, W26N, K30L, A36V, E37N, T44V

IC50 blocking the IL-6 dependent growth of TF-1 cells [3]: 0.19 nM
B12: His6-Z14861 (designed binder)
chain: B7 chain with D21E, T23K, W26I, K30N, A36I, E37D

IC50 blocking the IL-6 dependent growth of TF-1 cells [3]: 0.51 nM
B15: His6-Z15142 (designed binder)
chain: B7 chain with D21E, T23M, W26Y, K30S, A36V, E37D

IC50 blocking the IL-6 dependent growth of TF-1 cells [1]: 110 nM
B17: His6-Z06844 (designed binder)
chain: B7 chain with D21E, R22H, T23A, W26L, K30L, A36V, E37K, T44G, F47M

IC50 blocking the IL-6 dependent growth of TF-1 cells [3]: 0.93 nM
B18: His6-Z15110 (designed binder)
chain: B7 chain with D21E, T23R, W26T, K30S, A36I, E37D

IC50 blocking the IL-6 dependent growth of TF-1 cells [3]: 0.27 nM
B19: His6-Z14984 (designed binder)
chain: B7 chain with D21E, R22K, T23Q, W26R, K30L, A36I, E37D

IC50 blocking the IL-6 dependent growth of TF-1 cells [1]: 28 nM
B20: His6-Z06829 (designed binder)
chain: B7 chain with D21E, R22Q, T23R, W26T, K30V, A36V, E37S, A40S, T44S

IC50 blocking the IL-6 dependent growth of TF-1 cells [3]: 0.22 nM
B22: His6-Z14712 (designed binder)
chain: B7 chain with D21E, R22Y, T23L, W26N, A36V, E37D

IC50 blocking the IL-6 dependent growth of TF-1 cells [3]: 0.12 nM
B23: His6-Z11632 (designed binder)
chain: B7 chain with D21E, T23E, W26F, K30T, A36V, E37S, T44S

IC50 blocking the IL-6 dependent growth of TF-1 cells [3]: 0.18 nM
B24: His6-Z15036 (designed binder)
chain: B7 chain with D21E, R22Y, T23E, W26F, K30A, A36V

IC50 blocking the IL-6 dependent growth of TF-1 cells [3]: 0.43 nM
B26: His6-Z14862 (designed binder)
chain: B7 chain with D21E, R22A, T23A, W26R, K30L, A36I, E37D

IC50 blocking the IL-6 dependent growth of TF-1 cells [1]: 1.6 nM
IC50 blocking the IL-6 dependent growth of TF-1 cells [3]: 0.13 nM
B27: His6-Z06814 (designed binder)
chain: B7 chain with D21E, R22Q, T23R, W26R, K30L, A36I, T44W, F47L

IC50 blocking the IL-6 dependent growth of TF-1 cells [1]: 20 nM
B30: His6-Z06809 (designed binder)
chain: B7 chain with D21E, T23D, W26R, K30A, A36V, E37D, M39L, A40V

IC50 blocking the IL-6 dependent growth of TF-1 cells [3]: 0.087 nM
B31: His6-Z14630 (designed binder)
chain: B7 chain with D21E, R22K, T23F, A36V, E37D, M39V

More lines, now with the values behind:

B1: Z06789-ABD (Z06789 fused to ABD variant PP013) (designed binder)
chain: MGSSLQVDAKYAKEERQAWWEIHSLPNLTVDQMAAFIVKLMDDPSQSSELLSEAKKLNDSQAPKVDGSLAEAKEAANAELDSYGVSDFYKRLIDKAKTVEGVEALKDAILAALP
IC50 blocking the IL-6 dependent growth of TF-1 cells [1]: ~100 nM

B2: Z06829-ABD (Z06829 fused to ABD variant PP013) (designed binder)
chain: B1 chain with R16Q, Q17R, W20T, S24V, D31S, A34S, V38S, M41F
IC50 blocking the IL-6 dependent growth of TF-1 cells [1]: 15 nM

B3: Z06799-ABD (Z06799 fused to ABD variant PP013) (designed binder)
chain: B1 chain with R16Q, Q17R, W20T, S24V, D31Q, V38T, M41F
IC50 blocking the IL-6 dependent growth of TF-1 cells [1]: 2.4 nM

B4: Z06814-ABD (Z06814 fused to ABD variant PP013) (designed binder)
chain: B1 chain with R16Q, Q17R, W20R, S24L, V30I, D31E, V38W, M41L
IC50 blocking the IL-6 dependent growth of TF-1 cells [1]: 0.8 nM
IC50, inhibition of IL-6 trans-signaling dependent MCP-1 secretion by HUVECs [2]: ~1 nM

B5: Z06809-ABD (Z06809 fused to ABD variant PP013) (designed binder)
chain: B1 chain with Q17D, W20R, S24A, M33L, A34V, V38T, M41F
IC50 blocking the IL-6 dependent growth of TF-1 cells [1]: 10 nM

B6: His6-Z14700 (designed binder)
chain: B7 chain with D21E, T23H, W26F, A36V, E37D
IC50 blocking the IL-6 dependent growth of TF-1 cells [3]: 0.1 nM

B13: His6-Z06802 (designed binder)
chain: B7 chain with D21T, R22Q, T23H, A36V, E37S
IC50 blocking the IL-6 dependent growth of TF-1 cells [1]: 43 nM

B14: His6-Z06777 (designed binder)
chain: B7 chain with D21E, T23K, W26F, K30L, A36T, E37Q, M39R, A40S, T44S
IC50 blocking the IL-6 dependent growth of TF-1 cells [1]: 72 nM

B16: His6-Z06799 (designed binder)
chain: B7 chain with D21E, R22Q, T23R, W26T, K30V, A36V, E37Q
IC50 blocking the IL-6 dependent growth of TF-1 cells [1]: 3.9 nM

B21: His6-Z06789 (designed binder)
chain: B7 chain with D21E, T23Q, K30S, A36V, E37D, T44V, F47M
IC50 blocking the IL-6 dependent growth of TF-1 cells [1]: 8.6 nM

B25: His6-Z06779 (designed binder)
chain: B7 chain with D21E, T23S, W26F, K30T, A36V, E37Q, M39I, T44W, F47Y
IC50 blocking the IL-6 dependent growth of TF-1 cells [1]: 30 nM

B28: His6-Z06791 (designed binder)
chain: B7 chain with D21Q, R22A, T23K, K30V, A36V, E37H, M39V
IC50 blocking the IL-6 dependent growth of TF-1 cells [1]: 5.2 nM

B29: His6-Z06792 (designed binder)
chain: B7 chain with D21E, T23D, W26H, H29Q, K30I, A36I, E37T, T44S
IC50 blocking the IL-6 dependent growth of TF-1 cells [1]: 53 nM
